Results published in PubChem BioAssay AID1745853 (National Center for Advancing Translational Sciences (NCATS), 2022).
The list shows a part of the results. Further columns of the screen follow, without active or inactive calls.

How the values were obtained:
Assay in all cases: Primary Screen for Target Class Profiling of Small Molecule Inhibitors of Methyltransferases
[1] = biological target: Glycine N-methyltransferase (Homo sapiens) (UniProt Q14749); conditions: purified enzyme, MTase-Glo SAH luminescence; measured here: GNMT inhibition; at 40 µM; stronger effect = lower value
In short: (§1)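 Each enzyme was reacted with SAM and its substrate, with compounds tested once at 40 uM; SAH formed was read by MTase-Glo luminescence.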

[2] = biological target: Guanidinoacetate N-methyltransferase (Homo sapiens) (UniProt Q14353); conditions: purified enzyme, MTase-Glo SAH luminescence; measured here: GAMT inhibition; at 40 µM; stronger effect = lower value
In short: as §1

[3] = biological target: Histamine N-methyltransferase (Homo sapiens) (UniProt P50135); conditions: purified enzyme, MTase-Glo SAH luminescence; measured here: HNMT inhibition; at 40 µM; stronger effect = lower value
In short: as §1

[4] = biological target: Nicotinamide N-methyltransferase (Homo sapiens) (UniProt P40261); conditions: purified enzyme, MTase-Glo SAH luminescence; measured here: NNMT inhibition; at 40 µM; stronger effect = lower value
In short: as §1

[5] = biological target: Phenylethanolamine N-methyltransferase (Homo sapiens) (UniProt P11086); conditions: purified enzyme, MTase-Glo SAH luminescence; measured here: PNMT inhibition; at 40 µM; stronger effect = lower value
In short: as §1
% is scaled to controls: 0 for no effect and ±100 for the full control effect.

Row | SMILES | activity change, negative = inhibition [1] [%] | activity change, negative = inhibition [2] [%] | activity change, negative = inhibition [3] [%] | activity change, negative = inhibition [4] [%] | activity change, negative = inhibition [5] [%]
1 | O=C(Cc1ccccc1)NCC1CN(Cc2ccncc2Cl)CC12CN(c1ccccc1)C2 (stereo not drawn) | -6.2 | -0.903 | 0.157 | -8.19 | -5.53
2 | CC(NC(=O)[C@H](Cc1ccccc1)NC(=O)OCc1ccccc1)C(=O)CF (stereo partly drawn) | -11.2 | -14.9 | 9.12 | -15.5 | -1.83
3 | CCn1ccc(C(=O)N2CCC(N3C[C@H](O)C[C@H]3C(=O)NCc3cccnc3)CC2)n1 | -8.05 | -4.62 | -4.5 | -7.18 | -19.6
4 | O=C(O[C@H]1[C@@H]2C=CO[C@@H](O[C@@H]3O[C@H](CO)[C@@H](O)[C@H](O)[C@H]3O)[C@@H]2[C@@]2(CO)O[C@@H]12)c1ccc(O)cc1 | 4.09 | 7.54 | 5.69 | -3.75 | 7.09
5 | COC(C)(C)CCn1nc(Nc2c(C)cccc2C)c2cnc(Nc3ccc(OCCN4CCCC4)c(F)c3)nc21 | -6.06 | -6.85 | -62.8 | -36.5 | -15
6 | CCCCCC(=O)Nc1ccc([C@H]2OCC(=O)N(Cc3nccn3C)[C@@H]2CO)cc1 | -8.81 | -6.21 | -3.36 | -9.12 | 7.13
7 | CCc1ccc(CNC(=O)Cn2ccc3cc(S(=O)(=O)N4CCCC4)ccc32)cc1 | 3.04 | 0.363 | 5.36 | 2.83 | 3.17
8 | COc1ccc(OC)c2c1cc1n2CC(C)(C(=O)NC2CCCCC2)N(C(C)c2ccccc2)C1=O (stereo not drawn) | -6.66 | -1.3 | 4.49 | 0.54 | -1.98
9 | O=C(CC1CCOCC1)N1CCN(Cc2ccc(F)cc2F)CC1 | 0.239 | -0.488 | 2.45 | -0.231 | -1.45
10 | CC1(C(=O)NC2CCCCCC2)Cn2c(cc3sccc32)C(=O)N1Cc1cccs1 (stereo not drawn) | 3.32 | -1.6 | 4.8 | -2.31 | 0.364
11 | CC(C)CCn1c(=O)c2ccccc2n2c(CCC(=O)NCCc3c[nH]c4ccccc34)nnc12 | -3.21 | 1.88 | 1.55 | -18 | 0.514
12 | Cc1ccc(S(=O)(=O)c2nnn3c2nc(NCCCOC(C)C)c2cc(Cl)ccc23)cc1C | -7.66 | -0.416 | -3.47 | -8.51 | -10.2
13 | CCCN1C(=O)c2c(C(=O)NCCN3CCOCC3)ncn2CC1(C)C(=O)NCCC(C)C (stereo not drawn) | 2.13 | 0.746 | 9.18 | 6.63 | 8.14
14 | OC[C@H]1O[C@@H](n2cnc3c(NC4CCCC4)ncnc32)[C@H](O)[C@@H]1O | -3.64 | 6.88 | -2.37 | -3.83 | 8.55
15 | CCC(C)NC(=O)c1ccc2c(=O)n(CCC(C)C)c3nn(CC(=O)N(C)c4ccccc4)c(=O)n3c2c1 (stereo not drawn) | -0.231 | 2.33 | -0.299 | -7.19 | -1.78
16 | CC(C)CCn1c(=O)c2ccc(C(=O)NC3CCCC3)cc2n2c(=O)n(Cc3ccccc3)nc12 | 5.23 | 1.38 | 5.26 | 3.81 | 9.52
17 | Cc1ccc(Cn2c(=O)c3ccccc3n3c(CCC(=O)N4CCN(c5ccccc5)CC4)nnc23)cc1 | -9.87 | 6.11 | 1.88 | -7.71 | -6.35
18 | CCC(C)NC(=O)c1ccc2c(=O)n(C)c3nnc(SCC(=O)Nc4ccc(C)cc4C)n3c2c1 (stereo not drawn) | 1 | -0.96 | -9.23 | -6.88 | -3.97
19 | CCc1ccc(C2c3cccn3-c3sc4c(c3CN2C(=O)Nc2ccc(OC)c(OC)c2)CCCC4)cc1 (stereo not drawn) | -6.35 | 1.1 | 1.49 | -11.7 | -2.08
20 | CC1(C(=O)NC2CCCCCC2)Cn2nc(-c3cccs3)cc2C(=O)N1Cc1ccccc1 (stereo not drawn) | 4.93 | 4.94 | 10.1 | 6.1 | 2.21
21 | CC(C)(N)c1ccc(-c2nc3ccccc3nc2-c2ccccc2)cc1 | -5.81 | 8.14 | 6.27 | -11.7 | -3
22 | CC1(C(=O)NC2CCCCCC2)Cn2nc(C3CC3)cc2C(=O)N1Cc1ccccc1Br (stereo not drawn) | 3.67 | 0.995 | 7.15 | 2.34 | 2.65
23 | C[N+](C)(C)CC=O | 4.64 | 8.6 | 4.92 | -8.47 | 1.45
24 | O=C(Nc1ccccc1)N1CCC(OCc2noc(C3CCCO3)n2)CC1 (stereo not drawn) | -0.989 | 0.147 | 1.71 | 4.53 | -0.295
25 | COc1ccc(Nc2cc(C)c3cc(NC(=O)c4cc(OC)cc(OC)c4)ccc3n2)cc1 |  | -14.4 |  | -24.8 | -4.47
26 | CCOc1ccc(NC(=O)c2ncn3c2C(=O)N(C2CC2)C(C)(C(=O)NCc2ccc(F)cc2)C3)cc1 (stereo not drawn) | -8.05 | 0.252 | -2.49 | -2.54 | -7.5
27 | CC(C)CCN1CCNC(=O)C1CC(=O)NCc1ccc(O)cc1O (stereo not drawn) | -4.79 | -0.943 | -3.39 | -0.137 | -3.24
28 | CN1C[C@H]2CN(C(=O)c3ccc(C(F)(F)F)cc3)CCN2C1=O | -0.523 | 2.91 | 1.25 | 2.97 | 17.9
